# Assay results published in the supplement of paper PMC9174493.
# Some of the results follow. Single values of this set are uncertain. Values with irradiation are relative to irradiated vehicle.
# How the values were obtained:
# [1] = system: A549-Dual; experiment: NF-kB reporter (SEAP) activity, viability-corrected, relative to vehicle (fold change vs vehicle); higher = more activation of STING-IRF / NF-kB immune response reporter
# [2] = system: A549-Dual; experiment: ISRE reporter (Lucia luciferase) activity, viability-corrected, relative to vehicle (fold change vs vehicle); higher = more activation of STING-IRF / NF-kB immune response reporter
# 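Throughout, for NF-kB reporter (SEAP) activity, viability-corrected, relative to vehicle: viability correction based on the alamar blue assay, with concentrations leaving 10% survival or less dropped.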
SMILES,"NF-kB reporter ([1]; 0.1 µM, irradiation: 8 Gy/4 fr)","NF-kB reporter ([1]; 0.1 µM, irradiation: none)","NF-kB reporter ([1]; 0.3 µM, irradiation: 8 Gy/4 fr)","NF-kB reporter ([1]; 0.3 µM, irradiation: none)","NF-kB reporter ([1]; 1 µM, irradiation: 8 Gy/4 fr)","NF-kB reporter ([1]; 1 µM, irradiation: none)","NF-kB reporter ([1]; 3 µM, irradiation: 8 Gy/4 fr)","NF-kB reporter ([1]; 3 µM, irradiation: none)","NF-kB reporter ([1]; 10 µM, irradiation: 8 Gy/4 fr)","NF-kB reporter ([1]; 10 µM, irradiation: none)","ISRE reporter ([2]; 0.1 µM, irradiation: 8 Gy/4 fr)","ISRE reporter ([2]; 0.1 µM, irradiation: none)","ISRE reporter ([2]; 0.3 µM, irradiation: 8 Gy/4 fr)","ISRE reporter ([2]; 0.3 µM, irradiation: none)","ISRE reporter ([2]; 1 µM, irradiation: 8 Gy/4 fr)","ISRE reporter ([2]; 1 µM, irradiation: none)","ISRE reporter ([2]; 3 µM, irradiation: 8 Gy/4 fr)","ISRE reporter ([2]; 3 µM, irradiation: none)","ISRE reporter ([2]; 10 µM, irradiation: 8 Gy/4 fr)","ISRE reporter ([2]; 10 µM, irradiation: none)"
CC1CCC2C(C)C(=O)OC3OC4(C)CCC1C32OO4 (centres undefined) [Artemisinin],1.25,1.63,1.18,1.14,1.4,0.884,1.52,0.986,0.852,1.02,1.09,1.19,1.02,1.12,1.08,0.858,1.04,0.904,0.836,0.808
Cc1cccc(C(C)c2c[nH]cn2)c1C.Cl (centres undefined) [Medetomidine HCl],0.807,1.09,0.799,1.06,0.93,0.845,0.952,0.942,0.93,0.979,0.874,0.798,0.827,0.818,0.641,0.783,0.811,0.993,0.775,1
CC(C)[N+](C)(CCC(C(N)=O)(c1ccccc1)c1ccccc1)C(C)C.[I-] [Isopropamide Iodide],1.11,1.09,0.979,0.878,1.05,0.937,1.13,0.872,1.07,1.12,1.11,1.02,1.1,0.761,0.874,0.74,0.823,0.843,0.836,0.871
O.O=P1(N(CCCl)CCCl)NCCCO1 (centres undefined) [Cyclophosphamide Monohydrate],0.886,0.955,1.02,0.912,0.821,0.864,0.927,0.778,0.846,0.842,0.905,0.924,1.07,0.877,0.864,0.823,0.901,0.698,0.893,0.793
CN(C)C(=O)Oc1cc(OC(=O)N(C)C)cc(C(O)CNC(C)(C)C)c1.Cl (centres undefined) [Bambuterol HCl],1.15,1.39,0.907,1.5,1.48,0.998,1.64,1.09,1.12,1.39,1.01,1.23,0.974,1.27,1.2,0.893,0.954,1,1.08,0.884
CC1CC(=O)CC2CCC3C4CCC(O)C4(C)CCC3C12C (centres undefined) [Mesterolone],1.03,0.921,0.843,1.09,0.917,1.2,0.893,1.03,0.865,0.995,0.876,0.781,0.874,0.846,0.914,0.755,0.785,0.636,0.803,0.807
Cl.Cn1c(CCCC(=O)O)nc2cc(N(CCCl)CCCl)ccc21 [Bendamustine HCl],1.06,1.07,1.16,1.11,0.872,1.01,1.1,0.826,0.909,0.922,1.03,1.03,1.33,1.1,0.988,0.954,0.983,0.844,1.02,0.806
O=C(O)c1nn(Cc2ccc(Cl)cc2Cl)c2ccccc12 [Lonidamine],1.32,1.3,1,1.54,1,1.84,1.18,1.47,1.06,0.997,1.1,1.13,1.01,1.24,1.07,1.23,1.04,0.756,1.01,0.797
CC(=O)OCC1=C(C(=O)O)N2C(=O)C(N)C2SC1 (centres undefined) [7-Aminocephalosporanic acid],,,,,,,,,1.03,1.12,,,,,,,,,0.762,0.94
COC1=CC2C3Cc4ccc(OC)c(O)c4C2(CCN3C)CC1=O (centres undefined) [Sinomenine],0.98,1.73,1.26,1.87,1.44,1.33,1.9,1.2,1.32,0.927,1.14,1.4,1.14,1.29,1.14,1.2,1.22,1.26,1.26,0.803
COc1cc2c(c(OC)c1OC)-c1ccc(OC)c(=O)cc1C(NC(C)=O)CC2 (centres undefined) [Colchicine],0.896,2.62,0.932,2.8,1.1,2.04,1.56,2.3,0.909,1.85,0.0834,0.968,0.107,1.51,0.054,0.788,0.0806,0.774,0.0815,0.63
"Cl.NCC(O)c1ccc(O)cc1 (racemic) [(+,-)-Octopamine HCl]",1.44,2.19,1.26,2.25,1.98,1.59,2.2,1.54,1.77,1.14,1.29,2.13,1.24,1.98,1.48,1.3,1.23,1.36,1.55,0.941
C=CCN1CC(C(=O)N(CCCN(C)C)C(=O)NCC)CC2c3cccc4[nH]cc(c34)CC21 (centres undefined) [Cabergoline],0.977,1.09,0.984,0.986,1.03,1.12,1.05,1.1,1.06,1.04,1.04,1.05,1.15,1.12,1.1,1.06,1.26,0.881,1.2,1.24
Oc1cc(Cl)ccc1Oc1ccc(Cl)cc1Cl [Triclosan],,,,,,,,,0.264,0.509,,,,,,,,,0.092,0.302
CCC1(O)C(=O)OCc2c1cc1n(c2=O)Cc2c-1nc1ccccc1c2CCNC(C)C.Cl (centres undefined) [Belotecan (CKD-602) hydrochloride],1.44,2.07,,3.32,3.63,7.18,,,,,1.4,6.78,,7.09,1.33,8.56,,,,
CCC(CO)NC(=O)C1C=C2c3cccc4c3c(cn4C)CC2N(C)C1.O=C(O)/C=C\C(=O)O (centres undefined) [Methysergide Maleate],,,,,,,,,0.783,0.775,,,,,,,,,0.794,0.577
O=C1C=CC(=O)C=C1 [p-Benzoquinone],,,,,,,,,1,0.777,,,,,,,,,0.925,0.581
COC1=CC2C3Cc4ccc(OC)c(O)c4C2(CCN3C)CC1=O.Cl (centres undefined) [Sinomenine hydrochloride],1.12,1.14,1.14,0.961,1.34,0.909,1.11,1.04,1.15,1.18,1.29,1.08,1.26,1.12,1.12,1.03,1.07,1.06,1.15,0.857
Cn1c(CCCC(=O)O)nc2cc(N(CCCl)CCCl)ccc21 [Bendamustine],0.862,0.946,0.881,0.897,0.944,0.887,0.923,0.805,0.917,0.836,0.915,0.862,0.873,0.839,0.952,0.889,0.962,0.636,0.96,0.822
CCC1=CC2CN3CCc4c([nH]c5ccccc45)C(C(=O)OC)(C2)C13 (centres undefined) [Catharanthine],1.35,1.26,1.21,1.8,1.16,1.87,1.19,1.4,1.2,1.26,1.21,1.42,1.19,1.36,1.21,1.18,1.23,0.875,1.14,1.28
CC(NC(C)(C)C)C(=O)c1cccc(Cl)c1.Cl (centres undefined) [Amfebutamone (Bupropion) HCl],,,,,,,,,0.979,0.9,,,,,,,,,0.99,0.632
COc1cc2c3c(c1OC)-c1ccccc1CC3N(C)CC2 (centres undefined) [Nuciferine],,,,,,,,,0.766,0.929,,,,,,,,,0.702,0.471
Cc1c(N)nc(C(CC(N)=O)NCC(N)C(N)=O)nc1C(=O)NC(C(=O)NC(C)C(O)C(C)C(=O)NC(C(=O)NCCc1nc(-c2nc(C(=O)NCCC[S+](C)C)cs2)cs1)C(C)O)C(OC1OC(CO)C(O)C(O)C1OC1OC(CO)C(O)C(OC(N)=O)C1O)c1c[nH]cn1.O=S(=O)([O-])O (centres undefined) [Bleomycin sulfate],0.936,0.835,0.916,0.924,0.781,0.831,0.793,0.678,0.917,0.728,0.838,0.901,0.995,0.906,0.842,0.917,0.918,0.907,0.957,0.949
Cn1cc(C2=C(c3cn(C4CCN(Cc5ccccn5)CC4)c4ccccc34)C(=O)NC2=O)c2ccccc21,1.03,0.928,0.893,1.05,0.894,1.12,1.21,1.13,1.48,1.45,0.975,0.991,1.06,0.945,0.907,1.07,1.24,1.14,1.3,1.06
